From PubChem BioAssay AID624202 (National Center for Advancing Translational Sciences (NCATS), 2012)
The campaign covered roughly 380,000 compounds. About 4,000 (1.1%) were called active. Inconclusive means that the source gave no clear call. Such entries were picked first, then a sample of the others. Calls come from the whole dose curve; as a rule, active = well fitted activation curve with a large enough effect; inconclusive = small, poorly fitted or top-dose-only effect; inactive = no such curve, though single readings can be large or run the other way. Where the call is inconclusive, the potency comes from a doubtful curve fit.

test: qHTS Assay to Identify Small Molecule Activators of BRCA1 Expression; conditions: MCF7-BRCA1-FFLuc reporter, luminescence, 48 h; activation: at 46.1 µM (top of the series), scaled: vehicle 0%, 10 µM genistein 100% unless noted; note: nearly all actives have a fitted effect of over 80% in size
Outline: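 MCF7 cells carrying a BRCA1-firefly luciferase reporter (2000 cells/well, phenol-red free MEM) were attached for 2 h at 37 °C, then given compounds for 48 h. Luminescence was read 15 min after luciferase reagent; activity normalized to genistein (10 microM) and DMSO.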
Potency is the fitted concentration of half-maximal effect; tags give direction and shape of the fitted curve.

Compound | activation | Potency
O=C(O)c1ccc(N/N=C/c2cc(Br)cs2)cc1 | inconclusive: -47.7% [activator] | 
CCn1c(-c2ccccn2)nc2cc(S(=O)(=O)N(C)C)ccc21 |  | inconclusive: 14.1 µM [activator, single point]
Cc1nc2ccc(NC(=O)CCC3CCCC3)cc2s1 |  | active: 11.2 µM
CN1N=C(/C=C/c2ccccc2)CCC1=O |  | inconclusive: 14.1 µM [activator, partial curve, poor fit]
Cn1c(-c2ccc3c(c2)OCO3)cnc1NCc1cccc(O)c1 |  | inconclusive: 25.1 µM [activator, single point]
OC(c1nnc(-c2ccccc2)o1)c1cccs1 (stereo unspecified) |  | active: 11.2 µM
Fc1cccc(/C=N/Nc2nncc3ccccc23)c1 |  | inconclusive: 0.631 µM [activator, full curve, poor fit]
Clc1ccc(C=Cc2ccccn2)cc1 |  | inconclusive: 7.08 µM [activator, partial curve, poor fit]
CCc1ccc(OCc2ccc(C(=O)O)o2)cc1 | inconclusive: -68.7% [activator] | 
O=C(NCCc1ccc(OC(F)F)cc1)C1CC(=O)N(c2ccc3c(c2)OCCO3)C1 (stereo unspecified) | inactive: 4.49% | 
Clc1ccccc1SCc1nc2ccccc2[nH]1 |  | inconclusive: 12.6 µM [activator, single point]
Cc1nn(-c2ccc(F)cc2)c(Cl)c1/C=N/NC(=O)c1cccs1 |  | inconclusive: 7.94 µM [activator, partial curve, poor fit]
CCc1cccc(NC(=O)CSC2=Nc3ccccc3N=C(c3ccc(F)cc3)C2)c1 | inactive: -41% | 
CCc1ccc(NC(=O)CSc2nncn2-c2cccnc2)cc1 |  | inconclusive: 17.8 µM [activator, single point]
O=C(c1c(F)cccc1F)N1CCCC(c2nc(-c3cccs3)no2)C1 (stereo unspecified) |  | inconclusive: 12.6 µM [activator, partial curve, poor fit]
CC(C)(C)c1cc(C(=O)Nc2ccc(F)cc2)n(Cc2ccc(F)cc2)n1 | inactive: -65.7% | 
COc1ccc(NC(=O)c2sccc2C)c([N+](=O)[O-])c1 |  | active: 11.2 µM
O=C1C=C(c2cc3ccccc3s2)CCC1 |  | inconclusive: 15.8 µM [activator, partial curve, poor fit]
Cc1ccc2cc(NC(=O)c3ccc(C(C)(C)C)cc3)ccc2n1 |  | inconclusive: 7.94 µM [activator, partial curve, poor fit]
O=[N+]([O-])c1ccccc1/C=C\C=N\N1CCN(c2ccccc2)CC1 | inactive: 31.7% | 
CN(C)c1ccc(C=C2SC(=S)NC2=O)cc1 |  | inconclusive: 2.24 µM [activator, full curve, poor fit]
Cc1cccc(CCNc2nc3ccc(C)cc3n3cnnc23)c1 |  | inconclusive: 7.08 µM [activator, full curve, poor fit]
COc1ccc(/C=C/C(=O)NC(=S)N2CCN(c3ccccn3)CC2)cc1OC | inactive: -17.1% | 
O=C(Nc1ccc(Oc2ncccn2)cc1)c1ccco1 | inactive: 53.9% | 
O=C(CC[C@H]1O[C@@H](n2ccc(=O)[nH]c2=O)[C@H](O)[C@@H]1O)NCCc1c[nH]c2ccccc12 | inactive: -0.0583% | 
Cc1ccc(-c2nnc(SCc3ccccc3C)o2)cc1 |  | active: 11.2 µM

Compound | activation | Potency
COc1ccc2cc(C(=O)NCC3CCCO3)[nH]c2c1 (stereo unspecified) |  | inconclusive: 11.2 µM [activator, partial curve, poor fit]
COc1ccccc1OCCSc1nc(N)cc(N)n1 |  | inconclusive: 25.1 µM [activator, single point]
O=C(CSc1ccc(-c2ccccc2)nn1)c1cccs1 |  | inconclusive: 12.6 µM [activator, partial curve, poor fit]
COc1ccc2c(c1)Cc1sc(NC(=O)c3cccs3)nc1-2 |  | inconclusive: 1.58 µM [activator, partial curve, poor fit]
CC(C)N1CCC(=NNC(=O)c2cccs2)CC1 |  | active: 8.91 µM
COc1ccc(NC(=S)NC(=O)c2ccc3c(c2)OCCO3)cc1 |  | inconclusive: 2.24 µM [activator, full curve, poor fit]
CC(=O)c1cccc(NC(=S)NC(=O)c2cccc(C)c2)c1 |  | inconclusive: 8.91 µM [activator, partial curve, poor fit]
CC(=O)c1ccc(OCc2cc(C(=O)N(C)CCOc3ccc(C)cc3)no2)cc1 |  | active: 3.98 µM
Cc1oc2c(c1C(=O)O)C(=O)c1ccccc1C2=O |  | inconclusive: 2 µM [activator, partial curve, poor fit]
Cc1onc(-c2ccc(Cl)cc2)c1-c1ccnc(SCC(=O)Nc2cc(Cl)cc(Cl)c2)n1 | inactive: -49.1% | 
CCOc1ccc(C(=O)NC2CCCCCCC2)cc1 |  | inconclusive: 0.631 µM [activator, full curve, poor fit]
COc1ccccc1NC(=O)CSc1nnc(-c2ccoc2C)o1 |  | active: 7.94 µM
COC(=O)c1ccc(NC(=O)Cn2nnc3ccccc32)cc1 |  | active: 10 µM
Cc1ccc(-c2ccc(NC(=O)C3C4C=CC(C4)C3C(=O)O)cc2)o1 (stereo unspecified) |  | inconclusive: 11.2 µM [activator, partial curve, poor fit]
Cc1ccc2nc(-c3ccccc3)cn2c1 | inconclusive: -78.5% [activator] | 
Cc1cc(N/N=C/c2ccc3c(c2)OCO3)nc2ccccc12 |  | active: 12.6 µM
CCCC(=O)N1CCN(c2nc3ccc(Cl)cc3s2)CC1 |  | inconclusive: 2.51 µM [activator, full curve, poor fit]
COc1ccc(C(=O)OCCc2ccc(O)cc2)cc1 |  | active: 5.01 µM
Cc1ccc(Cl)cc1N1CCN(C(CC(C)C)c2nnnn2CC2CCCO2)CC1 (stereo unspecified) | inactive: -14.8% | 
C[C@H]1CCCCO[C@H](CN(C)C(=O)C2CCCCC2)[C@@H](C)CN([C@@H](C)CO)C(=O)c2cc(NC(=O)NC3CCCCC3)ccc2O1 | inactive: -14.2% | 
N#Cc1ccccc1OCC(=O)Nc1ccc2c(c1)OCO2 |  | inconclusive: 3.16 µM [activator, partial curve, poor fit]
COC(=O)c1ccc(-c2nc3ccccc3[nH]2)cc1 |  | inconclusive: 0.631 µM [activator, full curve, poor fit]
COc1ccc(/C=C2/C(=O)ON=C2c2ccccc2)cc1OC | inactive: -14% | 
CC(=O)c1ccc(/C=C/c2nc3ccccc3n2C)o1 |  | inconclusive: 0.562 µM [activator, full curve, poor fit]
Cc1cc2cc(CNC(=O)Nc3ccccc3)ccc2n1C |  | inconclusive: 12.6 µM [activator, partial curve, poor fit]
CC(=O)n1cc(/C=N/NC(=O)c2ccccc2O)c2ccccc21 |  | inconclusive: 8.91 µM [activator, partial curve, poor fit]

Compound | activation | Potency
O=c1c(=Nc2ccccc2O)c(=O)c2ccccc12 |  | active: 11.2 µM
COc1ccc(/C=N/Nc2nc3ccccc3[nH]2)c(OC)c1OC |  | inconclusive: 1.26 µM [activator, partial curve, poor fit]
CC(NC(=O)c1ccc(N(C)C)cc1)C(c1cccs1)N1CCN(C)CC1 (stereo unspecified) |  | inconclusive: 12.6 µM [activator, partial curve, poor fit]
COc1ccc2c(c1)oc(=O)c1cc(OC)ccc12 |  | inconclusive: 11.2 µM [activator, partial curve, poor fit]
Cc1ccc(Nc2ncccc2C(=O)O)cc1C |  | inconclusive: 35.5 µM [activator, single point]
CCCC(=O)Nc1ccc(-c2nc3cc(C)ccc3o2)cc1 | inconclusive: 53% [activator] | 
O=C(Nc1cccnc1Cl)C1CCCN(c2ncnc3c2nc2n3CCCCC2)C1 (stereo unspecified) | inactive: 9.24% | 
Cc1ccc(F)c(S(=O)(=O)NC(=O)C2(C)CCN2C(=O)c2cccc3ccccc23)c1 (stereo unspecified) | inactive: 4.65% | 
CC(=O)N1/C(=C/c2ccc(N(C)C)cc2)C(=O)c2ccccc21 | inactive: -65.1% | 
CCN(CC)c1ccc(NC(=O)c2cccc(C)c2OC)c(C)c1 |  | active: 4.47 µM
O=S(=O)(Nc1cccc(-c2ccc(N3CCCCCC3)nn2)c1)c1cccc(F)c1 |  | inconclusive: 2.82 µM [activator, full curve, poor fit]
O=C(CCl)N1N=C(c2ccco2)CC1c1ccco1 (stereo unspecified) | inactive: -18.4% | 
CC1CCN(c2ccc(-c3ccc(NC(=O)c4ccco4)cc3)nn2)CC1 |  | inconclusive: 2.24 µM [activator, partial curve, poor fit]
COCCNC(=O)c1ccc2nc(Cc3ccc(OC)c(OC)c3)oc2c1 |  | inconclusive: 22.4 µM [activator, single point]
CNC(=O)c1c(Br)cnn1-c1ccc(C)cc1 |  | inconclusive: 7.08 µM [activator, partial curve, poor fit]
Cc1ccccc1-n1nnnc1SCc1cc(=O)n2ccsc2n1 | inactive: -0.16% | 
O=C(Nc1ccccc1)OCc1cc(-c2ccccc2Cl)on1 |  | active: 8.91 µM
O=C(Nc1ccc(N2CCCCCC2)cc1)c1ccc[nH]1 |  | active: 1.41 µM
COc1cccc2sc3cc(NCCCN4CCOCC4)ccc3c(=O)c12 |  | active: 10 µM
COc1ccc(-c2cc(O)cc(O)c2)cc1 |  | inconclusive: 2.51 µM [activator, full curve, poor fit]
S=C(NCc1ccc(Cl)c(Cl)c1)NCc1ccco1 | inactive: -0.113% | 
Nc1nc(-c2ccc(NC(=O)c3ccco3)cc2)cs1 | inactive: -24.2% | 
CCOC(=O)c1cc(C(=O)Nc2ccc(C)c(F)c2)nn1C |  | active: 10 µM
CCOC(=O)/C(C#N)=C(C)/C=C1\Sc2ccccc2N1CC |  | active: 3.16 µM
